Test results as given in PubChem BioAssay AID504832 (National Center for Advancing Translational Sciences (NCATS), 2011).
About 18,000 (5.8%) of roughly 310,000 compounds were called active. The inconclusive results got no clear call from the source; some entries with a clear call stand among them for comparison. Calls come from the whole dose curve; as a rule, active = well fitted inhibition curve with a large enough effect; inconclusive = small, poorly fitted or top-dose-only effect, or another doubt; inactive = no such curve, though single readings can be large or run the other way. No potency is given beside an inconclusive call; the fits are too rough.
% is set by controls: 0 for no effect and ±100 for the full control effect; potency is the fitted concentration of half-maximal effect; tags give direction and shape of the fitted curve.

Experiment: Primary qHTS for delayed death inhibitors of the malarial parasite plastid, 48 hour incubation
Conditions: P. falciparum luciferase growth in erythrocytes; series mostly up to 28.7 µM
How it was run: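 Luciferase-expressing P. falciparum in infected erythrocytes (2% hematocrit, 0.1% parasitemia final) in RPMI 1640/0.5% Albumax were exposed to compound for 48 hours at 37 C, 5% CO2; growth read as luminescence.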
With `CC1CCC(NS(=O)(=O)c2ccc(N3CCCC3=O)cc2)CC1` (centres undefined) the Potency was “inactive”. For `O=C(N/N=C/c1[nH]c2ccccc2c1Cl)c1cccc(Br)c1`, the Potency was inconclusive [inhibitor, partial curve, poor fit]. With `O=C(NN=C1CCCC1)c1[nH]c2ccc(Br)cc2c1-c1ccccc1` the Potency was “inactive”. For `O=C(NC(=S)NNC(=O)c1cnccn1)c1ccc(F)cc1`, the Potency was active: 14.7 µM. With `CCCSc1ccc([C@@H]2[C@@H]3C(=O)N(C)C(=O)[C@@H]3[C@]3(C(=O)OC)CCCN23)cc1OC` the Potency was active: 11.7 µM. With `O=C(Nc1ccc(Cl)c(Cl)c1)Nc1ccccn1` the Potency was “inactive”. With `Cc1nn(C)cc1C(C)NC(=O)c1cc(COc2c(F)cccc2F)on1` (centres undefined) the Potency was “inactive”. In the case of `CCCCn1c(N)c(N(CCOC)C(=O)C2CC(=O)N(Cc3ccco3)C2)c(=O)[nH]c1=O` (centres undefined), the Potency is reported as inconclusive [inhibitor, single point]. In the case of `CC(C)C[C@H](NC(=O)c1nc[nH]c1C(=O)N1CCN(C(=O)OC(C)(C)C)CC1)C(=O)OC(C)(C)C`, the Potency is reported as inconclusive [inhibitor, partial curve, poor fit]. With `CCC1CCc2sc(C(=O)NNC(=O)c3ccncc3)cc2C1` (centres undefined) the Potency was “inactive”. With `Cc1ccn2c(Nc3ccc4c(c3)OCO4)c(-c3ccc(O)cc3)nc2c1` the Potency was inconclusive [inhibitor, single point]. For `CCCn1c(N2CCN(CC(=O)c3c(C)n(C)c4ccc(OC)cc34)CC2)nc2c1c(=O)[nH]c(=O)n2C`, the Potency was inconclusive [inhibitor, full curve]. In the case of `CCCCC1=CC2=CC(=O)C(C)(OC(=O)CC)C(=O)C2=CN1CCc1ccccn1` (centres undefined), the Potency is reported as inconclusive [inhibitor, partial curve, poor fit]. With `Cc1c(C(c2cccs2)c2c(C)n(C)n(-c3ccccc3)c2=O)c(=O)n(-c2ccccc2)n1C` the Potency was inconclusive [inhibitor, single point]. In the case of `CCN1C(=O)[C@H]2[C@@H](c3ccc(C)cc3)N3C(=O)N(c4cccc(Cl)c4)C(=O)[C@@]3(CC)[C@H]2C1=O`, the Potency is reported as inconclusive [inhibitor, partial curve, poor fit]. For `O=C(NCc1ccco1)c1cc(-c2ccc3c(c2)OCO3)on1`, the Potency was “inactive”. In the case of `O=c1c2ccccc2nc(SCc2cccc(F)c2)n1C1CCCC1`, the Potency is reported as inconclusive [inhibitor, single point]. In the case of `O=C(NC1CCCC1)C(c1ccco1)N(Cc1ccccc1)C(=O)c1csnn1` (centres undefined), the Potency is reported as inconclusive [inhibitor, partial curve, poor fit]. With `Cc1ccsc1/C=C/c1n[nH]c(=O)c(C#N)c1C` the Potency was “inactive”. With `O=C(CCNC(=O)c1ccccc1Cl)NCC1COc2ccccc2O1` (centres undefined) the Potency was inconclusive [inhibitor, partial curve, poor fit]. In the case of `CCOC(=O)c1c(NC(=O)C(F)(OC)C(F)(F)F)sc(C(=O)N2CCCCC2)c1C` (centres undefined), the Potency is reported as active: 11.7 µM. In the case of `Cc1ccc2c(c1)C1CN(C)CCC1N2S(=O)(=O)c1ccc(C(C)C)cc1` (centres undefined), the Potency is reported as active: 4.65 µM. In the case of `CCOC1(OCC)C(c2ccc(N)cc2)C(C#N)(C#N)C1(OCC)OCC` (centres undefined), the Potency is reported as inconclusive [inhibitor, full curve, poor fit]. With `Cc1ccccc1-n1nnnc1SCC(=O)Nc1ccc(S(=O)(=O)N2CCCC2)cc1` the Potency was inconclusive [inhibitor, single point]. In the case of `CC1(OC(=O)C2CCCC2)C(=O)C=C2C=C(c3ccsc3)N(C3CC3)C=C2C1=O` (centres undefined), the Potency is reported as inconclusive [inhibitor, single point]. For `C/C(=N\Nc1nc2c(s1)CCCC2)c1ccccc1`, the Potency was inconclusive [inhibitor, single point]. With `O=C(NC1CC2CCCC(C1)N2C(=O)Nc1ccc(Cl)c(C(F)(F)F)c1)C1CC1` (centres undefined) the Potency was inconclusive [inhibitor, partial curve, poor fit]. With `O=[N+]([O-])c1cccc(NC(=S)Nc2nc(-c3ccc(Cl)cc3Cl)cs2)c1` the Potency was active: 5.86 µM. With `CN(CC(=O)NCc1ccccc1)Cc1cccc(F)c1` the activity change, negative = inhibition was inactive: -96.1% [at 0.00184 µM]. In the case of `CC1=NNC(=O)C1CCC(=O)N/N=C\c1ccccc1[N+](=O)[O-]` (centres undefined), the Potency is reported as inconclusive [inhibitor, single point]. For `Cc1ccc(/C=N/Nc2cc(C)nc(NCc3ccccc3)n2)cc1`, the Potency was active: 0.586 µM. In the case of `CCOc1ccc(N=Cc2c(O)cc(C)oc2=O)cc1`, the Potency is reported as “inactive”. For `O=C(CCCOc1ccccc1)Nc1ccc(S(=O)(=O)N2CCOCC2)cc1`, the Potency was active: 11.7 µM. For `O=C(NCc1ccco1)C(c1cccs1)N(C(=O)Cc1cccs1)c1ccccc1` (centres undefined), the Potency was inconclusive [inhibitor, single point]. For `O=C(Nc1ccc2c(c1)CCCN2C(=O)c1ccccc1)c1ccccc1`, the Potency was inconclusive [inhibitor, single point]. For `O=C(O)c1cccc(S(=O)(=O)N2CCCC(c3nc4c(nnn4Cc4ccccc4Cl)c(=O)[nH]3)C2)c1` (centres undefined), the Potency was inconclusive [inhibitor, partial curve, poor fit]. For `COc1cc(/C=N/NC(=O)c2sc(N)c(C#N)c2C)cc(Br)c1O`, the Potency was inconclusive [inhibitor, single point]. For `CC(C)OCCCNC(=O)Cn1ccc2cc(S(=O)(=O)N3CCCCC3)ccc21`, the Potency was inconclusive [inhibitor, single point]. With `CN(CC(=O)Nc1cccc(F)c1)C(=O)CC1CC2CCC1C2` (centres undefined) the Potency was inconclusive [inhibitor, single point]. In the case of `CCOC(=O)C1(Cc2ccc(OC)cc2)CCN(C(=O)CCN2CCCC2=O)CC1`, the Potency is reported as inconclusive [inhibitor, partial curve, poor fit]. For `CC[N+](CC)(CC)CCC(O)(c1ccccc1)C1CCCCC1` (centres undefined), the Potency was active: 6.57 µM. With `CNc1nc(-c2ccccc2)cc(C)c1S(C)(=O)=O` the Potency was “inactive”. For `O=C(CSc1nc2ccccc2c(=O)n1-c1ccc(F)cc1)Nc1ccc2c(c1)CCC2`, the Potency was active: 9.28 µM. For `CC(=O)Nc1cc2c3c(c1)CC(=O)N3CCC2`, the Potency was “inactive”. With `COc1ccc2cc(C(c3nnnn3C3CCCC3)N3CCOCC3)c3nnnn3c2c1` (centres undefined) the Potency was “inactive”. In the case of `O=C(Cn1c(NCCCO)nc2ccccc21)c1ccco1`, the Potency is reported as “inactive”. With `O=C1C2CCCN2C(=S)N1C1CCCCC1` (centres undefined) the Potency was inconclusive [inhibitor, partial curve, poor fit]. For `COCCN(C(=O)COC(=O)Cc1cccc2ccccc12)c1c(N)n(Cc2ccccc2)c(=O)[nH]c1=O`, the Potency was inconclusive [inhibitor, single point]. With `OC(CNCc1ccccc1F)(c1ccc(F)cc1)c1ccc(F)cc1` the Potency was inconclusive [inhibitor, partial curve]. With `CC(C)(C)n1nnnc1C(c1ccc(Cl)cc1)N(Cc1cccnc1)Cc1ccco1` (centres undefined) the Potency was inconclusive [inhibitor, single point]. For `Cc1ccc(CNC(=O)c2ccc(CNS(=O)(=O)c3ccc4c(c3)C(C)(C)C(=O)N4C)cc2)o1`, the Potency was inconclusive [inhibitor, full curve, poor fit]. In the case of `CCN(CC)S(=O)(=O)c1ccc(NC(=O)c2ccc(Cl)nc2)cc1`, the Potency is reported as inconclusive [inhibitor, single point]. In the case of `O=C(CN1C(=O)c2ccccc2C1=O)Nc1cccc(S(=O)(=O)Nc2ccccc2Cl)c1`, the Potency is reported as “inactive”. In the case of `COc1ccc(OCc2nc3ccccc3n2C(C)C)cc1`, the Potency is reported as “inactive”. In the case of `CNS(=O)(=O)c1cccc(C(=O)OCC(=O)c2ccc(S(=O)(=O)N3CCCCC3)cc2)c1`, the Potency is reported as active: 13.1 µM. With `O=C(NCCNC(=O)c1cccnc1)c1ccc(Br)cc1` the Potency was “inactive”. For `CCOc1ccc(NC(=O)CN(C)C(=O)c2cccnc2Sc2ccccc2Cl)cc1OCC`, the Potency was inconclusive [inhibitor, single point]. For `COc1ccc2[nH]c(C)c(C(=O)CN3CC(C)OC(C)C3)c2c1` (centres undefined), the Potency was “inactive”. With `Oc1ccc(N=Nc2ccccc2)o1` the Potency was “inactive”. In the case of `Cc1cc(Nc2nnnn2-c2ccccc2)n(-c2ccc(Cl)cc2)n1`, the Potency is reported as active: 4.65 µM. In the case of `CCOc1ccc(N(CC(=O)NC2CC3CCC2C3)S(=O)(=O)c2ccc(C)cc2)cc1` (centres undefined), the Potency is reported as inconclusive [inhibitor, single point]. With `O=c1c2ccccc2nc(/C=C/c2cc(Br)ccc2O)n1CCCO` the Potency was active: 1.31 µM. In the case of `CC(C)N1CC(COc2ccc(Br)cc2)OC1=O` (centres undefined), the Potency is reported as “inactive”. With `Cc1cc(Br)c(Cl)cc1NC(=O)CN1C(=O)C2C3CC(c4ccccc4)C(C3)C2C1=O` (centres undefined) the Potency was inconclusive [inhibitor, single point]. For `Cc1ccc(-c2[nH]nc3c2C(c2ccccc2OC(=O)N2CCOCC2)C(C#N)=C(N)O3)cc1` (centres undefined), the Potency was inconclusive [inhibitor, partial curve, poor fit]. In the case of `COCCn1c(SCCCc2ccccc2)nc2c1c(=O)[nH]c(=O)n2C`, the Potency is reported as inconclusive [inhibitor, partial curve]. For `O=C(NC1CCCC1)c1ccc(Cl)c(S(=O)(=O)N2CCCCC2)c1`, the Potency was inconclusive [inhibitor, partial curve, poor fit]. For `Cc1cc(C)cc(NC(=O)COc2coc(CN3CCN(c4ccccc4)CC3)cc2=O)c1`, the Potency was active: 13.1 µM. With `O=C(CN1C(=O)c2ccccc2S1(=O)=O)NCc1c(F)cccc1F` the Potency was inconclusive [inhibitor, single point].
